Over roughly 33,000 sequences, “E-score (-0.5 to 0.5)” has its median near -0.056; the highest 2% begin near 0.38. Some of the results follow.
The sequences below were run against Stb4 (UniProt P50104) (assay: PBM E-score (8-mer binding enrichment) (E-score (-0.5 to 0.5)); higher = stronger / more preferred TF binding; most listed sequences are background and not binding sites). Conditions: protein concentration: 200 nM; construct: GST-DNA-binding domain.
Outline: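 E-scores (a modified Wilcoxon-Mann-Whitney statistic) were assigned by the Universal PBM Analysis Suite to every ungapped eight-base word pooled with its reverse complement. The input came from universal all-10-mer Agilent arrays made double-stranded by primer extension and probed with GST-tagged yeast transcription factors at about 100-200 nM. Fluorescent anti-GST detected bound protein, and masliner normalised the scans.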

| Sequence | PBM E-score |
| --- | --- |
| ACATCAAA | -0.0159 |
| CAGTCCAC | -0.306 |
| CCAGGTAG | -0.138 |
| CTTCAAAG | -0.197 |
| ATCAGGAT | 0.045 |
| GCTTATCC | 0.254 |
| CAATTCGA | -0.215 |
| ATGTACAG | 0.0274 |
| CGACGTAG | -0.0433 |
| CGGCTACG | 0.3 |
| ACAAAGGG | -0.244 |
| GAGTCTAA | -0.109 |
| CGACAGAA | 0.121 |
| GGCACACA | 0.14 |
| CGTGTTAA | -0.179 |
| CATCCGAG | 0.481 |
| CGTGCCAC | -0.0445 |
| GCTTTCAA | -0.0547 |
| AGAAGTCA | -0.164 |
| ATACTGTC | -0.00802 |
| CTCCTGCA | -0.295 |
| AGGCGCGC | -0.031 |
| ATGTTTAA | -0.0636 |
| AGAGAACG | -0.155 |
| GCCAGGGA | -0.197 |

| Sequence | PBM E-score |
| --- | --- |
| ATCACAAA | -0.149 |
| AGTCCTTA | -0.2 |
| CCGTTAAA | 0.047 |
| CTCAGAAC | -0.12 |
| CACAGCCG | 0.33 |
| AACATCGA | -0.165 |
| ACAGGCTC | -0.0329 |
| ATTGCTAG | -0.0987 |
| GGAGCTCA | -0.0824 |
| GGGGTAAC | -0.122 |
| CGGTTCAA | 0.186 |
| AGCGTGGA | -0.104 |
| ATGCGCAT | -0.0617 |
| ATCGGGCG | 0.0895 |
| CGATGAGC | 0.0814 |
| AATAGTAC | -0.108 |
| CGTACGAG | -0.145 |
| CGTTTGAA | -0.0238 |
| AAGGTGGC | -0.0629 |
| CTATGAAG | -0.128 |
| GCGTGAAC | -0.14 |
| ATACGTTC | -0.239 |
| CAAATCGA | -0.244 |
| ACTCTATC | -0.0391 |
| GGTGCTTA | -0.209 |

| Sequence | PBM E-score |
| --- | --- |
| ACCCGGCA | 0.28 |
| GACGCCGC | 0.022 |
| CCGCAATA | 0.182 |
| CAACAAAG | -0.108 |
| GATACGAA | 0.0389 |
| ACAGTACG | -0.074 |
| GCGCCCCC | -0.0513 |
| CCGTCGAG | 0.0589 |
| ATTTTGCG | -0.0544 |
| AAATAATT | 0.11 |
| AAGGGTTA | -0.154 |
| GCTCTGTA | -0.196 |
| AGTAAAAA | 0.0111 |
| CTACGCTC | -0.15 |
| ATCTCCTC | 0.0416 |
| AGTAGGGA | -0.113 |
| ACGGGGGG | -0.228 |
| AATATTCC | 0.347 |
| AATGAACC | -0.0493 |
| ACCACCGT | -0.141 |
| CGGCGCAC | 0.229 |
| CCGAATGA | 0.375 |
| AGCCTCAC | -0.255 |
| GCATTCCA | -0.153 |
| AAAACTAA | -0.0736 |

| Sequence | PBM E-score |
| --- | --- |
| ATGGTGAA | 0.0288 |
| CTGATGCA | -0.19 |
| ATGAATCC | 0.00087 |
| AATATCGA | -0.0257 |
| GTTAAGTA | -0.0919 |
| CGCATCCC | -0.0101 |
| CTCATATA | 0.0386 |
| AAACTATT | 0.0429 |
| GATCCGGC | 0.396 |
| ACGGGCCT | 0.0389 |
| CAGCCGAA | 0.392 |
| CACGGGAG | 0.166 |
| CGCCGGTA | 0.112 |
| CGCGAAAC | 0.029 |
| CGTACGTA | -0.187 |
| AGCGCAGA | -0.136 |
| ATCTAGGA | -0.094 |
| AATAAGGT | 0.0936 |
| ATGATAAG | 0.0379 |
| ACAAGCGT | -0.117 |
| ATCTTTAG | 0.0557 |
| CGATGACC | 0.0158 |
| CGTCCTGC | -0.121 |
| ACAGCGAT | -0.15 |
| AGTCGCGC | 0.0947 |

| Sequence | PBM E-score |
| --- | --- |
| CCACTCGG | 0.369 |
| TATACGCA | -0.105 |
| CCGATGAC | 0.249 |
| ATTCCGCC | 0.325 |
| CAAACAGA | -0.189 |
| CGGCTCCA | 0.227 |
| ACCAATTC | 0.0117 |
| CCAGTGCG | -0.16 |
| CATGTTGC | -0.141 |
| GCGTCTAC | -0.107 |
| ACCCGTAT | 0.245 |
| AGATTCTA | -0.128 |
| AATTAAAC | -0.0423 |
| CACGAATA | -0.22 |
| CAAAGTAC | -0.173 |
| GCAAGGAA | -0.0342 |
| AGGCTTAG | -0.0551 |
| ACCACTTA | 0.0405 |
| GCAGGAGA | -0.114 |
| CAGGTCGG | 0.205 |
| CTTATTGA | -0.0282 |
| GACCCAGC | -0.0269 |
| CTATCCGC | 0.396 |
| ATACTACG | -0.0506 |
| AGCGGGCG | 0.0147 |

| Sequence | PBM E-score |
| --- | --- |
| CAGCCATC | -0.148 |
| CGAAACCA | 0.118 |
| ACCGATAT | 0.143 |
| CATCAATA | -0.221 |
| AACATTAC | -0.0327 |
| ACAAACGC | -0.0477 |
| CGAACCCG | 0.296 |
| CAATAGGA | -0.217 |
| ACGCCGAA | 0.317 |
| ACTAGGGA | -0.171 |
| ACTACCAT | -0.13 |
| AGATGGGC | 0.0521 |
| TAGTAATA | -0.199 |
| AAGCTTAT | -0.114 |
| AAGAGACT | -0.103 |
| CCATTCGG | 0.297 |
| AACAACAC | -0.215 |
| CTCGGTAA | 0.431 |
| AGATATCT | -0.13 |
| CCTCTACG | -0.102 |
| GCAGATCA | -0.261 |
| CAAGTGCA | -0.338 |
| ATCGTATA | 0.0886 |
| AATTACAC | 0.122 |
| ATTATAGG | 0.0435 |

| Sequence | PBM E-score |
| --- | --- |
| AAACCAAC | -0.078 |
| ACTGACCA | -0.231 |
| ATGGCGGC | 0.144 |
| AAACCTAT | -0.175 |
| GCAATTAC | 0.0107 |
| TAATCAAA | 0.128 |
| CAATAAGG | -0.314 |
| ACACCAAT | 0.00344 |
| CCTCCGGC | 0.295 |
| ACCAGGAT | 0.0452 |
| TCCTGACA | -0.148 |
| CTATATGA | -0.107 |
| CGAATTAG | 0.105 |
| GCGGACTA | 0.115 |
| GGGTATAC | 0.259 |
| CACCTTCG | 0.159 |
| TCGCTGAA | -0.0933 |
| CTACTTCA | -0.0345 |
| CGCACCAC | -0.0216 |
| ATAAGTGG | -0.0724 |
| AACGTGCG | -0.0294 |
| AGGCAACA | -0.167 |

Reference: the supplement of paper PMC3334620
